# Reference: PubChem BioAssay AID686978 (National Center for Advancing Translational Sciences (NCATS), 2013)
# Values joined by “and” are separate entries in the source; they are usually repeats but may differ in a detail not shown here. Equal values may be shown once. Out of some 420,000 compounds screened, about 64,000 (15%) were called active. Inconclusive means that the source gave no clear call. Such entries were picked first, then a sample of the others. The call rests on the fitted dose curve; in most records, active means well fitted inhibition curve with a large enough effect; inconclusive means small, poorly fitted or top-dose-only effect; inactive means flat fitted curve, though single readings scatter. Potencies beside an inconclusive call are fits to weak or partial responses and may not hold up.
# Test: qHTS for Inhibitors of human tyrosyl-DNA phosphodiesterase 1 (TDP1): qHTS in cells in absence of CPT; further: nearly all actives have a fitted effect of over 55% in size
# Conditions: DT40 Tdp1-/- hTDP1 cells, no CPT, ATP luminescence, 48 h; activity change, negative = growth inhibition: at 46.2 µM (top of the series) unless noted
# How it was run: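 Readout: luminescence from CellTiter-Glo after 30 min in the dark at RT. Cells: DT40 Tdp1-/- with stable hTDP1, 400/well. Exposure: compounds alone, ≥48 hr, 37 °C.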
# On the % scale 0 is the no-effect control and ±100 the full control effect; potency means the concentration at half of the fitted maximal effect; tags describe the fitted curve by direction and shape.
Compound,Potency,"activity change, negative = growth inhibition"
Cc1ccc(N(CC(=O)N2CCCCCC2)S(=O)(=O)c2ccccc2)cc1,"inconclusive: 16.4 µM [inhibitor, single point]",
CCCC(=O)N1CCCC1(C)C(=O)Nc1ccc2c(c1)CCN2C(C)=O (stereo not given),,inactive: -7.73%
COc1ccc([N+](=O)[O-])cc1NC(=O)C1CCCN1S(=O)(=O)c1cccs1 (stereo not given),"inconclusive: 18.4 µM [inhibitor, partial curve, poor fit]",
O=C(CSc1nc2ccccc2s1)Nc1ccc2c(c1)OCO2,"inconclusive: 18.4 µM [inhibitor, single point]",
CC(=O)c1ccc(NC(=O)CC23CC4CC(C2)CC(n2nnc(C)n2)(C4)C3)cc1,active: 13 µM,
Cc1nc(SCc2c(F)cccc2Cl)c2c(=O)n(C)c(=O)n(C)c2n1,"inconclusive: 32.6 µM [inhibitor, single point]",
COc1ccccc1CNC(=O)COc1ccc(C)nc1[N+](=O)[O-],,inactive: 0.843%
COc1ccc(Cl)cc1NC(=O)CN(C)C(=O)c1cc(=O)c2ccccc2o1,"inconclusive: 6.51 µM [inhibitor, single point]",
CCOC(=O)N1CCN(S(=O)(=O)c2ccc(OC)c(C(=O)N3CCCCC3)c2)CC1,"inconclusive: 29.1 µM [inhibitor, single point]",
CCc1cccc(C)c1NC(=S)NCC1CCN(c2ccc(OC)cc2)C1 (stereo not given),active: 20.6 µM,
N/C(=N\OC(=O)COc1cc(Cl)c(Cl)cc1Cl)c1ccncc1,,inconclusive: -37.7% [inhibitor]
O=C(Nc1ccc(F)cc1)C(c1ccccc1)N1CCN(S(=O)(=O)c2ccccc2)CC1 (stereo not given),"inconclusive: 16.4 µM [inhibitor, partial curve]",
O=C(COc1ccc(/C=N/NC(=O)c2ccccc2O)cc1)Nc1ccccc1,,inactive: -23.8%
CC1Cc2ccccc2N1Cc1cc(=O)c(OCC(=O)NCCc2ccccc2)co1 (stereo not given),"inconclusive: 25.9 µM [inhibitor, single point]",
CCCCC(=O)Nc1nc2ccc3nc(C)sc3c2s1,"inconclusive: 14.6 µM [inhibitor, partial curve]",
Cc1cc2c(cc3c(SCc4nc(-c5ccccc5)oc4C)nnc(C)n32)o1,active: 16.4 µM,
CCOC(=O)C(NCCc1ccccc1F)(NC(=O)CC)C(F)(F)F (stereo not given),,inactive: -9.71%
COc1cc(CN2CCN(C(=O)c3cccc4ccccc34)CC2)cc(OC)c1O,,inactive: 0.983%
Nc1nc(N)c2cc(Sc3ccc4ccccc4c3)ccc2n1,active: 8.2 µM,
Cc1ccc(N2CCN(S(=O)(=O)c3ccc(F)c(C(=O)Nc4ccc(Cl)cc4Cl)c3)CC2C)cc1 (stereo not given),"inconclusive: 5.8 µM [inhibitor, full curve, poor fit]",
COc1ccc2oc(=Nc3ccc(C(=O)O)cc3)c(C(=O)NCc3ccco3)cc2c1,"inconclusive: 14.6 µM [inhibitor, partial curve]",
CCCNC(=O)C1(C)CCCN(C(=O)c2ccc(OC(F)F)cc2)C1 (stereo not given),,inactive: 2.82%
O=C(CBr)N1CCc2ccccc2C(c2ccccc2)C1 (stereo not given),active: 2.59 µM,
CN(Cc1ccc(Cl)c(Cl)c1)C(=O)c1cccc(S(=O)(=O)N2CCN(Cc3ccccc3)CC2)c1,active: 20.6 µM,

Compound,Potency,"activity change, negative = growth inhibition"
Cc1cccc(C(=O)N2CCCC(N3CCN(c4cccc(Cl)c4)CC3)C2)n1 (stereo not given),"inconclusive: 29.1 µM [inhibitor, single point]",
Cc1ccc(O)c(NC(=O)c2ccccc2-c2ccccc2C(=O)O)c1,,inactive: 11.2%
O=C(Nc1ccccc1)Nc1nnc(SCc2ccc(Cl)cc2)s1,,inactive: -21.9%
COc1cccc(CN2CCN(C(=O)[C@H]3O[C@@H](n4cnc5c(N)ncnc54)[C@H](O)[C@@H]3O)CC2=O)c1,,inactive: 0.553%
CCCOC(=O)c1ccc(NC(=O)c2ccccc2OC)cc1,"inconclusive: 29.1 µM [inhibitor, single point]",
Nc1ccc2c(c1)C=C/C2=C\c1ccccc1,,inconclusive: -30.9% [inhibitor]
O=S(=O)(c1ccc(Cl)s1)N1CCN(c2ncccn2)CC1,"inconclusive: 10.3 µM [inhibitor, partial curve, poor fit]",
CN(C(=S)NC1CCCCC1)C1(c2ccccc2Cl)CCCCC1=O (stereo not given),"inconclusive: 7.31 µM [inhibitor, partial curve]",
Cc1cc2ccccn2c1C(C[N+](=O)[O-])c1ccc(N(C)C)cc1 (stereo not given),"inconclusive: 18.4 µM [inhibitor, single point]",
Cc1c(C(=O)N2CCN(C(=O)c3ccco3)CC2)oc2c(Cl)cccc12,"inconclusive: 29.1 µM [inhibitor, single point]",
COc1ccc2oc(=O)c(C(=O)NCc3ccccn3)cc2c1,,inactive: -20.1%
CN1C(=O)C(=O)/C(=C(/O)c2ccccc2)C1c1ccc([N+](=O)[O-])cc1 (stereo not given),,inactive: 13.6%
CC1=NN(c2ccccc2)C(=O)/C1=C\c1cn(CCC#N)nc1-c1ccc(Cl)cc1,"inconclusive: 20.6 µM [inhibitor, single point]",
CCn1ccc2c(OCC(=O)Nc3ccccc3C)cccc2c1=O,active: 11.6 µM,
Cc1cccn2c(=O)c3cc(C(N)=S)c(=N)n(CCCOC(C)C)c3nc12,"inconclusive: 29.1 µM [inhibitor, single point]",
O=C1c2ccccc2C(=O)N1CCOc1ccc(F)cc1,,inactive: -5.19%
CC1(C)CC(NC(=O)C(Cl)(Cl)Cl)CC(C)(C)N1,,inactive: 0.228%
COCCCNC(=O)C[C@H]1C[C@H](C(=O)N2CCOCC2)[C@@]2(CCC3CCCC3)c3[nH]c4ccc(Cl)cc4c3CCN2C1=O,"inconclusive: 20.6 µM [inhibitor, single point]",
COc1ccc(N2CCN(C(=O)c3cccc(NC(=O)c4nsc5ccccc45)c3)CC2)cc1,active: 11.6 µM,
Cc1[nH]c2ccccc2c1C(=O)COC(=O)c1c(-c2ccccc2Cl)noc1C,"inconclusive: 29.1 µM [inhibitor, single point]",
CCOC(=O)c1ccc(NC(=O)Nc2cc3c(cc2N2CCCC2)n(C)c(=O)n3C)cc1,active: 23.1 µM,
CCN1CCN(C(CNS(=O)(=O)c2ccccc2)c2ccccc2)CC1 (stereo not given),,inactive: 9.56%
CCc1ccc(OCC(=O)N/N=C/c2cc([N+](=O)[O-])ccc2N2CCOCC2)cc1,"inconclusive: 18.4 µM [inhibitor, single point]",
Cc1cc(C)c2c(n1)sc1c(O)cc(=O)[nH]c12,,inactive: -10.7%

Compound,Potency,"activity change, negative = growth inhibition"
COC(=O)C1(C(=O)OC)c2ncccc2N(S(=O)(=O)c2ccc(C)cc2)C1CC(=O)c1ccccc1 (stereo not given),"inconclusive: 29.1 µM [inhibitor, single point]",
COC(=O)c1[nH]c2ccc(Cl)cc2c1NC(=O)Oc1ccccc1,,inactive: -2.87%
Cc1c(Br)cnn1C(C)C(=O)N1CCN(c2ccc(F)cc2)CC1 (stereo not given),"inconclusive: 18.4 µM [inhibitor, single point]",
Cc1ccc(OC(C)C(=O)N(C)Cc2ccccc2)c([N+](=O)[O-])n1 (stereo not given),,inactive: 8.28%
COc1cccc(CNC(=O)c2cc(C)nc3c2c(C)nn3-c2cccc(F)c2)c1,"inconclusive: 16.4 µM [inhibitor, single point]",
COc1ccc(S(=O)(=O)Nc2ccc3c(c2)CCCN3S(=O)(=O)c2ccc(C)cc2)cc1F,active: 20.6 µM,
COc1cc(OC)cc(C(=O)NN2CCCCC2)c1,,inactive: -10.6%
Cn1c(NC(=O)c2cccc(Cn3cc(Cl)cn3)c2)nc2ccccc21,"inconclusive: 23.1 µM [inhibitor, single point]",
COC(=O)c1cc(NC(=O)c2nn(C)c3c2COc2ccccc2-3)cc(C(=O)OC)c1,"inconclusive: 4.61 µM [inhibitor, partial curve]",
NCCNC(=O)c1ncsc1-c1cccc(F)c1,"inconclusive: 29.1 µM [inhibitor, single point]",
O=c1[nH]cnc(O)c1C1C=CC=CC=C1,"inconclusive: 29.1 µM [inhibitor, single point]",
Cc1ccc(-n2cc(CNCCN3CCOC3=O)c(-c3ccc(F)cc3)n2)cc1,"inconclusive: 29.1 µM [inhibitor, single point]",
Cc1cc(N)n2ncc(-c3cccc(Br)c3)c2n1,,inactive: -20.3%
CCCOc1ccc(S(=O)(=O)NCCN2CCOCC2)c2ccccc12,"inconclusive: 18.4 µM [inhibitor, single point]",
CCCNC(=O)C1(C)CCCN(C(=O)c2ccc3snnc3c2)C1 (stereo not given),,inactive: -4.47%
Cc1c(C(=O)Nc2ccc(F)cc2)sc2ncn(CC(=O)N3CCCCC3)c(=O)c12,"inconclusive: 29.1 µM [inhibitor, single point]",
COc1ccc(OCC(=O)Nc2c(C(=O)N3CCC(N4CCCCC4)CC3)oc3ccccc23)cc1,"inconclusive: 25.9 µM [inhibitor, single point]",
O=C(Nc1ccccc1N1CCN(C(=O)c2ccc(Cl)cc2)CC1)c1cccc(F)c1,"inconclusive: 29.1 µM [inhibitor, partial curve, poor fit]",
CCOc1ccc(-n2c(-c3ccco3)nc3c(cnn3-c3ccc(C)cc3)c2=O)cc1,"inconclusive: 3.26 µM [inhibitor, full curve, poor fit]",
Cc1ccc(N2C(=O)CC(SCC(=O)Nc3ccc(S(N)(=O)=O)cc3)C2=O)cc1 (stereo not given),"inconclusive: 29.1 µM [inhibitor, single point]",
Cc1cc(CN(C)C)c(O)c(C2(C)CCCCC2)c1,,inconclusive: -35.2% [inhibitor]
O=C(COCc1cc(-c2ccc3c(c2)OCO3)on1)N1CCN(c2ccccc2)CC1,"inactive and inconclusive: 23.1 µM [inhibitor, single point]",
